Results: publication PMC12040169 (PLOS Biology, 2025)
The other results are listed elsewhere or left out.

Test system: T1, C. trachomatis L2/434/Bu expressing GFP (CTL2-GFP)
T1 construct: L2/434/Bu GFP intracellular growth in HeLa cells
Design: species or system HeLa; C. trachomatis total inclusion area by high-content imaging, normalised to DMSO
Details: total inclusion area; 28.5 h, 10 µM; inhibitor
How it was run: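 After bulk GFP and resorufin fluorescence reads, cells were fixed, stained with Hoechst and imaged by high-content microscopy. Inclusion area and number (GFP) stood in for chlamydial growth, nuclei count (Hoechst) for host cell viability. MICs were derived as for the bulk readout.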

In order of rising “% of control remaining” value:
1. CCCCCOc1ccc(-c2ccc(Cl)nn2)cc1 [CBK007044]  5.271
2. Cc1cc(NC(=O)CCc2c(C)nc(N3CCOCC3)[nH]c2=O)no1 [CBK305636]  28.4076
3. COc1cc(C#N)ccc1OCc1ccccc1 [CBK002577]  43.4845
4. C/C(=N/NC(=O)C[N+](C)(C)C)c1nn(-c2ccc(Cl)cc2)nc1C [CBK008258C]  44.366
5. CC1(C)CN(c2ccc(Cl)cn2)C1=O [CBK018550]  46.1445
6. COc1cccc(Nc2cc(-c3ccc(N4CCOCC4)cc3)ncn2)c1 [CBK090733]  50.3201
7. COC(=O)C1=C(C)N=C2SCCC(=O)N2C1c1ccc(C(C)C)cc1 (stereo not shown) [CBK073523]  51.8176
8. COc1ccc(C(NC(=O)c2c(C)nc3sccn23)C2CC(O)C2)cn1 (stereo not shown) [CBK307330]  52.7525
9. CC(C)Oc1ccccc1CN(C)C(C)c1ccc(S(N)(=O)=O)cc1 (stereo not shown) [CBK305436]  52.9104
10. COC(=O)c1ccccc1NC(=O)Nc1ccc(N2CCOCC2)c2nonc12 [CBK266830]  55.881
11. Cc1cccc(CN(CC(C)(C)CN)C(=O)Nc2ccccc2C(F)(F)F)n1 [CBK002409C]  57.3391
12. Cc1c(NC(=O)CSc2nncn2C)ccc2nsnc12 [CBK269418]  60.1468
13. O=C(O)c1ccc(S(=O)(=O)N(CC2CC=CCC2)CC2CCCO2)cc1 (stereo not shown) [CBK286685]  61.1158
14. COc1ccc2c(c1)c(C(=O)N1CCn3nc(CO)cc3C1)c(C)n2C [CBK306764]  63.1512
15. CCN(CC)CCN(C(=O)N1CCCC1)c1c(C)cccc1C [CBK023237C]  63.491
16. COCCNC(=O)C1CCCCC1C(=O)O (stereo not shown) [CBK269135]  64.0703
17. CCn1ncc(Cn2cc(NC(=O)C3CCCCC3C(=O)O)cn2)c1C (stereo not shown) [CBK286859]  65.8521
18. O=C(NCc1cc[nH]n1)N1CCCN(Cc2cccs2)CC1 [CBK305645]  65.9201
19. O=C(NC(n1cnc2c(N3CCCCC3)ncnc21)C(Cl)(Cl)Cl)c1ccccc1 (stereo not shown) [CBK261038]  71.8334
20. Cc1ccc(F)c(CN2CCN(CCO)[C@@H]3CS(=O)(=O)C[C@@H]32)c1 [CBK307699]  73.411
21. CC(=O)N1CCC[C@H]2NC(=O)CNC(=O)C3(C/C=C/C[C@H]21)CCN(C(=O)c1cc(C)no1)CC3 [CBK292176]  76.2524
22. Cc1cc2ncc(-c3[nH]ncc3[N+](=O)[O-])cn2n1 [CBK269106]  79.7391
23. CC(C)(C)c1ccc(OCC(=O)Nc2ccc(S(=O)(=O)N3CCc4ccccc43)cc2)cc1 [CBK265352]  83.7495
24. CC(C)(C)NC(=O)CN1C(=O)N2CCCN=C2c2ccc(Cl)cc21 [CBK284391]  83.9422
25. O=C(NCCN1CCCCC1)C1CC(=O)N(Cc2ccncc2)C1 (stereo not shown) [CBK306629]  84.3217
26. Nc1nc(N)c2ncn([C@H]3C[C@@H](O)[C@@H](CO)O3)c2n1 [CBK201208]  84.4478
27. Cc1ccc(OCC(=O)NNC(=O)c2ccco2)cc1 [CBK261800]  85.9416
28. Cc1nccn1CC1(O)CCN(Cc2ccccc2F)CC1 [CBK284961]  88.4949
29. Cc1cccc2c3c([nH]c12)CCN(C(=O)[C@@H]1C[C@@H]2C=C[C@H]1C2)C3 [CBK281656]  88.8135
30. COc1cc(OC)nc(C(NC(=O)C2CCN(C(=O)c3ccccc3)CC2)c2ccccc2)n1 (stereo not shown) [CBK059650]  88.9131
31. CN1CCCCC[C@@H]2[C@@H]1[C@H](c1ccccc1)CN2C(=O)CN1CCCCCC1=O [CBK285524]  89.6499
32. O=C1c2ccc(Oc3cccc([N+](=O)[O-])c3)cc2C(=O)N1c1ccccn1 [CBK261190]  89.7583
33. COc1ccc(OC)c(C(C)NC(=O)C2CCN(CCc3c[nH]c4ccccc34)CC2)c1 (stereo not shown) [CBK148763]  89.7652
34. Oc1ccc(/N=N/c2cccc(Br)c2)cc1/C=N/c1ccc(-c2nc3ncccc3o2)cc1 [CBK262009]  90.9654
35. NS(=O)(=O)c1ccc(CCNC(=O)c2cccnc2)cc1 [CBK268158]  91.4038
36. O=C1c2ccccc2S(=O)(=O)N1CC(O)Cn1c2ccc(Br)cc2c2cc(Br)ccc21 (stereo not shown) [CBK262347]  91.4416
37. CN(C)C[C@H]1CC[C@]2(CC1)CN(C(=O)C1CC1)Cc1ccccc1O2 [CBK284920]  91.4455
38. O=C(C1=C(O)C(=O)N(CCCN2CCOCC2)C1c1ccccn1)c1ccc(Cl)cc1 (stereo not shown) [CBK266445]  91.5634
39. Cc1ccc(-n2nc(C(=O)O)c(C)c(C#N)c2=O)cc1C [CBK286987]  91.5863
40. Cc1nnc(-c2cccc(S(=O)(=O)Nc3nnc(C(F)(F)F)s3)c2)o1 [CBK062014]  92.3055
41. CC(NCc1ccc(S(N)(=O)=O)cc1)=C1C(=O)c2ccccc2C1=O [CBK262692]  92.9845
42. COc1ccc(SCC(=O)O)cc1 [CBK111455]  93.0627
43. Cc1ccc(OCCCC(=O)Nc2ccc(C(N)=O)cc2)c(C)c1 [CBK268032]  93.0656
44. COc1ccccc1-c1cnc2[nH]c(=O)n(Cc3ccc(F)c(Cl)c3)c2n1 [CBK064662]  94.2644
45. CCCc1nnc(SCC(=O)Nc2cccc(C(F)(F)F)c2)n1N [CBK028004]  94.449
46. N#Cc1cccc(CN2CCC(Cc3ccccc3)CC2)c1 [CBK126380]  95.3338
47. CCOC(=O)c1c(NC(=O)CSc2n[nH]c(N)n2)sc(C)c1C [CBK266412]  96.4165
48. COc1ccc(F)cc1-c1ccccc1CC1(C(=O)NCc2cccs2)CCOCC1 [CBK286416]  97.7623
49. CC(C)Nc1nccnc1-c1cccc(O)c1 [CBK037089]  97.8156
50. O=C(N[C@H]1CCN2C(=O)[C@@H](Cc3ccccc3)NC(=O)[C@H]12)c1cnccn1 [CBK289231]  98.7426
51. CCOC(=O)Cn1nnc(-c2ccc(Cl)cc2)n1 [CBK069596]  99.1104
52. CC(=O)Nc1cccc(-c2cnc(N)c(NCc3cccnc3)n2)c1 [CBK063562]  100.151
53. O=C(N/N=C/c1c[nH]nc1-c1ccccc1)c1cccnc1 [CBK262461]  100.257
54. CN(C)CCOCc1ncccc1OCCOC1CCCCO1 (stereo not shown) [CBK045662]  100.305
55. O=C(Nc1cc(Oc2cccnc2)cc([N+](=O)[O-])c1)c1cc2nc(-c3ccco3)cc(C(F)(F)F)n2n1 [CBK262534]  100.571
56. O=C(Cn1cccc2cc(-c3cccs3)nc1-2)NC1CC1 [CBK281897]  100.938
57. O=C(c1ccc2c(c1)OCCO2)N1CCN(C(=O)c2ccco2)CC1 [CBK144480]  101.314
58. NC(=O)C1CCN(C(=O)CN(c2ccccc2)S(=O)(=O)c2ccccc2[N+](=O)[O-])CC1 [CBK265320]  107.239
59. FC(F)(F)c1[nH]c2ncccc2c1CN1CCSCC1 [CBK283257]  108.193
60. Cc1cc(NC(=O)c2cc(C)[nH]n2)c2ccccc2n1 [CBK116260]  108.57
61. CCCCOc1nccnc1-c1cnn(C)c1 [CBK107085]  108.74
62. COc1cc(CNn2cnnc2S)ccc1OCC(N)=O [CBK265877]  109.384
63. CC1CCN(S(=O)(=O)c2ccc(NC(=O)CCn3c(=O)oc4ccccc43)cc2)CC1 [CBK268040]  109.434
64. O=C(COc1ccccc1)Nc1ccc2oc(-c3cccnc3)nc2c1 [CBK262959]  109.633
65. CCn1cc(CN2C3CCC2CC(O)(c2cccc(F)c2)C3)c(C)n1 (stereo not shown) [CBK282755]  109.699
66. Cc1ccc(C(=O)NNC(=S)Nc2ccc(S(N)(=O)=O)cc2)cc1[N+](=O)[O-] [CBK266866]  109.734
67. CN(C)C(=O)C1(Cc2ccc(-c3cccs3)cc2)CCN(C(=O)Cc2ccccc2)CC1 [CBK285784]  111.016
68. O=C(O)CSc1nnc(SCc2cccc3ccccc23)s1 [CBK266215]  113.527
69. O=C(C1CCCO1)N1CCC(c2ccc(F)cc2)CC1 (stereo not shown) [CBK283484]  114.055
70. Cc1cc(C)c2c(N)c(-c3ccncc3)sc2n1 [CBK288189]  114.278
71. CC1CCN(Cn2nc(COc3ccccc3)n(-c3ccccc3)c2=S)CC1 [CBK264247]  114.543
72. COc1cccc(CN(Cc2ccco2)Cc2cncn2C)c1 [CBK282497]  115.079
73. COC(=O)c1ccc(N2C(=O)CC(NCCc3ccc(S(N)(=O)=O)cc3)C2=O)cc1 (stereo not shown) [CBK262859]  117.357
74. O=C(Oc1cccc(-c2cnc3ccccc3n2)c1)c1ccc(S(=O)(=O)N2CCCCC2)cc1 [CBK267785]  118.645
75. CCN(CC)CCN1CCN(c2cncc(-c3cccc(N)c3)n2)CC1 [CBK065751]  118.868
76. CCOc1cccc(-c2cn3ccnc3c(NCCc3ccccn3)n2)c1 [CBK066586]  127.287
77. CCOc1cccc(OCC(=O)N2CCC(c3cc(C(=O)NC)c4ccccc4n3)C2)c1 (stereo not shown) [CBK285896]  128.875
78. O=C(O)CCN/C(=N\S(=O)(=O)c1ccccc1)c1ccccc1 [CBK266111]  133.395
79. CN(C)CCN(C)c1cncc(-c2ccc3c(c2)OCO3)n1 [CBK065897]  135.587
